Reference: PMC4336329 (PLoS ONE, 2015)
Hit rate of the full screen: of about 310,000 compounds, about 14,000 (4.5%) showed an effect of 50% or more. The effect is printed as a negative number. This is one part of the list.

Target: human ether-à-go-go-related gene (hERG) potassium channel (human, UniProt Q12809)
Assay: primary screen, population patch clamp on CHO cells stably expressing hERG
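Further: peak tail current of the secondary pulse compared with the same well before compound.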

Sequence of human ether-à-go-go-related gene (hERG) potassium channel (Q12809 whole entry, looked up): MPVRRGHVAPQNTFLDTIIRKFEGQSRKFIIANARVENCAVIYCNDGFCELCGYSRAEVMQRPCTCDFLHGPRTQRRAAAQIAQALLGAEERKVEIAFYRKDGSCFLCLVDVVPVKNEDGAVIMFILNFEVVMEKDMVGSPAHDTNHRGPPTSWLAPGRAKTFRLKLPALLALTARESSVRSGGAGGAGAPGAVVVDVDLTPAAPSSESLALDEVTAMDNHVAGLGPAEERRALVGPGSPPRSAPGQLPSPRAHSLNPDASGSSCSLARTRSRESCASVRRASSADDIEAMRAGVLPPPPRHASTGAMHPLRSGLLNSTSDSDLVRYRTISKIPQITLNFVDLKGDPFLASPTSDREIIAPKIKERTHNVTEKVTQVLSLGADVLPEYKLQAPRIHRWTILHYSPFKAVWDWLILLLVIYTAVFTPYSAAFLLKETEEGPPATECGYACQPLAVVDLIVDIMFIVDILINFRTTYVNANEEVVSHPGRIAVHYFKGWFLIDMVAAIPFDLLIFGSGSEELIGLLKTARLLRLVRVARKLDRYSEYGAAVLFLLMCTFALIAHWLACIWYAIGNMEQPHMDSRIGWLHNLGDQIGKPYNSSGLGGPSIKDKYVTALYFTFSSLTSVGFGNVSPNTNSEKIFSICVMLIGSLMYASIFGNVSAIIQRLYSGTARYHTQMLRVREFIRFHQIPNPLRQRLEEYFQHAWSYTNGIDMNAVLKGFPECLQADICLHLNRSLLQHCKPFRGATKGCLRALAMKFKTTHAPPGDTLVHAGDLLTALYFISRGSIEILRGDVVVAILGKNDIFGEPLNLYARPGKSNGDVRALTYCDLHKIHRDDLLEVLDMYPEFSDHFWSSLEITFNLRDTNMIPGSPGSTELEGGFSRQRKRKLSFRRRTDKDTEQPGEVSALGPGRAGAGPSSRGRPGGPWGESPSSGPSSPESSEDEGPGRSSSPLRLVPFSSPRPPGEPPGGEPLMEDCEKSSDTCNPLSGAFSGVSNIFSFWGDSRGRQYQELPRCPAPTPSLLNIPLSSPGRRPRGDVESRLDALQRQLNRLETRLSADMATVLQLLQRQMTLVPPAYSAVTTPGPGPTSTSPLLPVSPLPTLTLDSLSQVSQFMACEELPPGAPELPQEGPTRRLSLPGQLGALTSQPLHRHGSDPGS

Structure (SMILES)	hERG current change (%, negative = inhibition) at 10uM
CCN(CC)S(=O)(=O)c1ccc2oc(C(=O)NCCCN3CCOCC3)c(C)c2c1	-11.3%
O=C(O)CC(CC(=O)Nc1ccc(-c2ccccc2)cc1)c1ccccc1 (stereo not drawn)	9.93%
NC(=O)CC(NC(=O)c1cccc(Br)c1)c1ccc(NCC2CC2)c([N+](=O)[O-])c1 (stereo not drawn)	-65.4%
COc1ccc(-c2nnc(SCC(=O)Nc3sc4c(c3C#N)CCCC4)n2-c2ccccc2)cc1	15.4%
O=C(NCCC1=CCCCC1)C(=O)c1c[nH]c2ccccc12	42.2%
CC(C)(C)OC(=O)N/N=C/c1c[nH]c2ccccc12	-3.37%
CCC(=O)Nc1sc(Cc2ccccc2)c(C)c1C(N)=O	-22.8%
O=C(Nc1cccc(-c2cnc3ccccc3n2)c1)c1ccccc1	-0.281%
COc1ccc(NC(=O)c2cccc(S(=O)(=O)NCc3ccco3)c2)c(OC)c1	-21.2%
CCn1c(=O)c(C(=O)NCc2ccccc2Cl)c(O)c2ccccc21	18.1%
COc1ccc(S(=O)(=O)N2CCCC2)cc1C(=O)O	30.4%
COc1ccc(N/C=C\C(=O)c2ccc(C)cc2)cc1OC	17.7%
CCOc1cc(C(=S)N2CCCCC2)ccc1OS(=O)(=O)c1ccc(Cl)cc1	-1.37%
O=C1CCCC(O)=C1N=Nc1ccc2ncsc2c1	-19.3%
COc1cc(OC)cc(C(=O)NCCCNC(=O)c2ccccn2)c1	17.8%
CN1CCc2c(sc(NC(=O)c3cc(Cl)sc3Cl)c2C(N)=O)C1.Cl	-59.8%
COCCNC(=O)c1cn(C)c(=O)c2cc(OC)c(OC)cc12	19.3%
CC(=O)Nc1nnc(CCN(CCc2nnc(NC(C)=O)s2)[N+](=O)[O-])s1	14.3%
CCC(c1nnnn1CCOC)N(Cc1cc2cc(C)c(C)cc2[nH]c1=O)CC1CCCO1 (stereo not drawn)	-8.4%
CC(C)(C)c1cc(NC(=O)COc2ccc(Br)cc2)n(-c2ccccc2)n1	7.35%
Cc1ccc(-c2noc(CCC(=O)NCCN3CCN(Cc4ccccc4)CC3)n2)cc1	-49%

Structure (SMILES)	hERG current change (%, negative = inhibition) at 10uM
O=C(Cc1cccs1)Nc1nnc(COc2ccccc2)s1	3.05%
COc1ccc(C(=O)N2CCN(C(C)=O)CC2)cc1S(=O)(=O)N1CCOCC1	22.5%
O=C(Cc1ccc(S(=O)(=O)N2CCOCC2)s1)N1CCN(c2cccc(C(F)(F)F)c2)CC1	-31.7%
O=C(Nc1nc2c(Cl)ccc(Cl)c2s1)C1CC1	-0.575%
O=C(NCCc1ccccc1)/C(=N\O)c1ccccc1	7.7%
Nc1ccc(C(=O)N2N=C(c3ccccc3)CC2(O)C(F)(F)F)cc1 (stereo not drawn)	-22.9%
COc1cccc2c1C(=O)c1c(O)c3c(c(O)c1C2=O)C[C@](O)(C(C)=O)C[C@H]3O[C@@H]1C[C@@H](N)[C@@H](O)[C@@H](C)O1.Cl	-5.69%
COC(=O)C1=C(C(=O)OC)[C@@H]2Nc3ccccc3[C@@]23C[C@@H](C(=O)OC)N(C(=O)C2CCC2)C3=N1	-31.5%
O=C(O)C(=O)O.OC(CNCC(c1ccco1)N1CCCCC1)c1ccccc1 (stereo not drawn)	-1.87%
Nc1cc(Cl)ccc1Oc1ccc2ccccc2c1	-3.43%
NNc1nc(-c2ccccc2Cl)nc2ccccc12	11.1%
C=CCSC1=N/C(=C\c2cc(OCC)c(OC(C)=O)c([N+](=O)[O-])c2)C(=O)S1	2.96%
COc1cc(C(O)CN)ccc1O.Cl (stereo not drawn)	3.21%
CCc1ccc(NC(=O)CSCCO)cc1	6.8%
CCCN(CCC)C(=O)CSc1nc2ccccc2c(=O)n1C1CCCC1	-36.1%
CCC1CN(C(=O)N2CCC(C(=O)NCc3ccco3)CC2)c2ccccc2O1 (stereo not drawn)	0.0731%
CC(C)(C)c1nc2c(s1)CCc1onc(-c3ccc(Br)cc3)c1-2	11.5%
COc1ccc(N(C)C(=O)CN(C)S(=O)(=O)c2ccc3c(c2)c(=O)n(C)c(=O)n3C)c(OC)c1	-11.8%
COc1cccc(OC)c1OCCOCCn1cnc2ccccc2c1=O	3.5%
Cc1c(CC(=O)N2C[C@H]3C[C@@H](C2)c2cccc(=O)n2C3)c(=O)oc2cc(O)c(Cl)cc12	9.44%
COc1cc(C)ccc1OCCCCN1CC(C)OC(C)C1.O=C(O)C(=O)O (stereo not drawn)	-9.65%

Structure (SMILES)	hERG current change (%, negative = inhibition) at 10uM
C[N+]1(CC2COC3(CCCCC3)O2)CCCCC1.[I-] (stereo not drawn)	4.38%
COc1ccc(CSc2nnnn2-c2ccc(C(N)=O)cc2)cc1[N+](=O)[O-]	18.4%
CSCC[C@H](N)C(=O)NCC1CCC(C(=O)Nc2ccc3c(c2)OCO3)CC1 (stereo partly drawn)	14.3%
O=C(COC(=O)c1ccco1)NC1CCCC1	21.6%
O=C(Nc1nc2ccccc2s1)c1cnccn1	9.97%
O=C(NCc1ccco1)c1cccc(-c2nnc(-c3ccccc3)o2)c1	-43%
COc1ccc(OCC(=O)Nc2ncc3c(n2)CC(C)(C)CC3=O)cc1	-8.64%
O=c1[nH]c2cc3c(cc2cc1CN(CCCO)Cc1nnnn1Cc1ccc(F)cc1)OCO3	-4.03%
Cc1ccc(C(=O)N2CCN(C(=O)CN3CCOCC3)C2)cc1	-3.7%
COC(=O)c1cc(C(=O)c2ccc(Cl)cc2)n2c(=O)/c(=C\N(C)C)sc12	0.67%
CCN1CCN(Cc2ccc(NC(=O)c3ccc(C)c(NC(=O)c4c[nH]c5cc(C(F)(F)F)ccc5c4=O)c3)cc2C(F)(F)F)CC1	9.65%
CC(C)=CC(=O)O[C@H]1[C@@H]2[C@H](C)C(=O)O[C@@H]2C[C@@H](C)[C@@H]2[C@@H](O)CC(=O)[C@]21C	22.4%
CCOCCCn1c(C)nc2c(c1=O)c1nc3ccccc3nc1n2CCC1=CCCCC1	-4.67%
CCc1ccc(NC(=O)CSc2nc3[nH]ncc3c(=O)[nH]2)cc1	19.6%
COC(=O)c1ccc(NS(=O)(=O)NC(=O)c2c[nH]c3ccccc23)cc1	20.2%
Cc1cccc(C(=O)Nc2ccc(C(=O)/C=C/c3cccnc3)cc2)c1	8.97%
Cc1ccc(C(=O)N/C(=C\c2ccc(-c3ccc(Br)cc3)o2)C(=O)NC2CCS(=O)(=O)C2)cc1 (stereo not drawn)	-5.68%
O=C(NCc1cccnc1)c1ccc(Cn2c(=S)[nH]c3ccc(Br)cc3c2=O)cc1	13.7%
CC(C)CC(=O)/C(=C/c1ccc(N(C)C)cc1)n1cncn1	6.07%
O=c1oc2cc(O)ccc2cc1-c1ccccc1	12.6%
O=C(CSc1n[nH]c(-c2cccnc2)n1)OC1CCCCC1	10%

Structure (SMILES)	hERG current change (%, negative = inhibition) at 10uM
COc1ccccc1CN(Cc1nc2ccccc2c(=O)[nH]1)C(=O)Nc1ccccc1C	6.67%
Cc1ccc(-n2cccc2C(=O)NS(=O)(=O)c2ccc(C)cc2)cc1	-1.11%
COc1ccc(-c2c(C(F)(F)F)oc3c(CN4CCN(C)CC4)c(O)ccc3c2=O)cc1	9.96%
O=C(NC1CCS(=O)(=O)C1)c1cccc(S(=O)(=O)N2CCCC2)c1 (stereo not drawn)	16.9%
CN(Cc1cccc2cnccc12)C(=O)c1cc(COc2ccc(F)cc2Cl)on1	-19.1%
O=C(O)c1ccc(CNC(=O)c2ccc(C(F)(F)F)cc2)cc1	9.96%
CCC(=O)Nc1ccc(C(=O)CN2C(=O)NC3(CCOc4ccccc43)C2=O)cc1 (stereo not drawn)	-8.45%
COc1ccc(Cl)cc1S(=O)(=O)N1CCCC1=O	-0.656%
Cc1ccc(O)c(C2=Nc3ccccc3N=C(c3cccs3)C2)c1	12%
Cc1ccccc1NC(=O)c1ccc2c(O)c(S(=O)(=O)c3ccccc3)c(=O)[nH]c2c1	8.7%
CCOC(=O)N1CCN(CC(=O)N2c3ccccc3CCc3ccccc32)CC1.O=C(O)C(=O)O	-10.1%
CCCN(CCC)c1nc(N)c(C#N)c(CC#N)c1C#N	-4.14%
Cc1ccc(S(=O)(=O)N(C)C)cc1NC(=O)CCNC(=O)c1ccco1	16.6%
Cc1cc(NS(=O)(=O)c2ccc(NC(=S)NC(=O)/C=C/c3ccccc3)cc2)no1	7.71%
CCc1c(C)nc2cc(-c3cc(OC)cc(OC)c3)nn2c1N1CCN(CCN2CCOCC2)CC1	-33.5%
CC(C(=O)NCC1CCCCC1)N(C)Cc1ccc(Cl)cc1 (stereo not drawn)	-12.1%
C/C(NCc1cccnc1)=C(\C#N)C(=O)NCc1ccccc1	-7.27%
Cc1cc(=O)n(C)c(=O)n1CCCCCN1CCCC1.O=C(O)C(=O)O	5.16%
Cc1cccc(CS(=O)(=O)Cc2ccc(C(=O)NCC3CCCO3)o2)c1 (stereo not drawn)	-16.6%
CCOC(=O)C(=O)Nc1cc(C(=O)OC)cc(C(=O)OC)c1	13.5%
COc1ccc(NC(=O)Cc2ccc(Cl)c(Cl)c2)cn1	34.7%
